Entries after “also recorded” stand apart in the source; their conditions may differ. Some entries of the source have several records that differ or are many. This is not the full list of results. There may be further records.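 Rule for the calls: active = tumour findings in long-term animal cancer tests in more than one sex, species or organ; inactive = no tumour finding and more than one negative test.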 Values that stand side by side repeat one measurement (runs, samples, wells, individuals or studies). Marks in square brackets tell the records apart. Letters hold for one entry only. Brackets with × stand for listed records that agree.

Here are results for eleven compounds from PubChem BioAssay AID1205 (EPA DSSTox, 2008).

The data set is described as follows: DSSTox (CPDBAS) Carcinogenic Potency Database Summary MultiCellCall Results. Conditions: animal carcinogenicity bioassays, multi-cell call summary. The text has this:
The Carcinogenic Potency Database (CPDB) is a unique and widely used international resource of the results of over 6500 chronic, long-term animal cancer tests on over 1500 chemical substances. The CPDB provides easy access to the bioassay literature, with qualitative and quantitative analyses of both positive and negative experiments that have been published over the past 50 years in the general literature and by the National Cancer Institute/National Toxicology Program. The CPDB standardizes the diverse literature of cancer bioassays that vary widely in protocol, histopathological examination and nomenclature, and in the published author's choices of what information to provide in their papers. Results are reported in the CPDB for tests in rats, mice, hamsters, dogs, and nonhuman primates, and are based on the most positive result among all experiments for each sex-species. The DSSTox CPDBAS (all species) file incorporates data from the CPDB Summary Tables for the full list of over 1500 chemical substances tested in at least one species. A summary MultiCellCall, based on experimental bioassay results of one or more species, is provided in the DSSTox CPDBAS file (see Source URL) for more than 1150 chemical substances.
Associated TD50 values and tumor site details for the relevant species/sex experiment supporting the overall CPDBAS MultiSiteCall are provided in the full DSSTox CPDBAS file (see Comment) and the corresponding CPDBAS Species Bioassay in PubChem. ActivityScore is computed as follows: multispecies=50, multisex=30, multisite=20, with combination scores computed as sums of these values, e.g. multispecies+multisite=70.
Turning to `C=CC(=C)Cl`, the outcome was “active; multisite active; multisex active; multispecies active [sample A]; also recorded: inactive; multisex inactive; multispecies inactive [sample B]”.
As for `ClC1C(Cl)C(Cl)C(Cl)C(Cl)C1Cl` (stereo unspecified), the outcome is “active; multispecies active; also recorded: active; multisex active (2×); also recorded: active; multisite active; multisex active [separate samples]”.
The value for `ClC=C(Cl)Cl` was “active; multisite active; multisex active; multispecies active [sample A]; also recorded: active; multisex active [sample B]”; that for `C=C(C)CCl` was “active; multisite active; multisex active [sample A]; also recorded: active; multisex active; multispecies active [sample B]”; that for `Brc1c(Br)c(Br)c(Oc2c(Br)c(Br)c(Br)c(Br)c2Br)c(Br)c1Br` was “active; multisex active [sample A] and inactive; multisex inactive [sample B]”.
`CC(=O)OC1CC(C)OC(C)O1` (stereo unspecified): the outcome is “active; multisite active [sample A]; also recorded: inactive; multisex inactive; multispecies inactive [sample B]”.
Then `CN(C)C(=S)SSC(=S)N(C)C`, with “inactive; multisex inactive; multispecies inactive [sample A]; also recorded: inactive; multisex inactive [sample B]”; and `Cl/C=C/CCl`, with “active; multisite active; multisex active; multispecies active [sample A]; also recorded: active; multisite active; multispecies active [sample B]”.
Then `Oc1c(Cl)c(Cl)c(Cl)c(Cl)c1Cl`, with “active; multisite active [sample A]; also recorded: active; multisite active; multisex active [sample B]; also recorded: active; multisite active; multisex active; multispecies active [sample C]”; and `CCCCOCCOCCOCc1cc2c(cc1CCC)OCO2`, with “active; multisex active; multispecies active [sample A]; also recorded: inactive; multisex inactive [sample B]”; and `Cc1cccc(C)c1`, with “active; multisite active; multisex active [sample A]; also recorded: inactive; multisex inactive; multispecies inactive [sample B]”.
